These are yes or no findings as the source states them, for the method shown. Binding seen in cells or lysates may run through a third protein. Some entries that bind do so weakly or less than the wild type. Tags and fused reporters may be left off the sequences shown.
Columns and labels:
Assay in all cases: co-IP; yeast lysates in NP40 lysis buffer (1% NP40, 150 mM NaCl, 2 mM EDTA), IgG or anti-FLAG M2 beads, 4 °C, 2 h; Western blotting; wildtype cells (also rpt2-1 cells for Sgf73p-Yra1p; also sgf73Δ cells for Ada1p and Spt20p)
Hsf1p (S. cerevisiae) = Hsf1p (S. cerevisiae) (UniProt P10961)
[1] = molecular target: T1, Rrp6p-5xFLAG (S. cerevisiae) (UniProt Q12149)
T1 sequence: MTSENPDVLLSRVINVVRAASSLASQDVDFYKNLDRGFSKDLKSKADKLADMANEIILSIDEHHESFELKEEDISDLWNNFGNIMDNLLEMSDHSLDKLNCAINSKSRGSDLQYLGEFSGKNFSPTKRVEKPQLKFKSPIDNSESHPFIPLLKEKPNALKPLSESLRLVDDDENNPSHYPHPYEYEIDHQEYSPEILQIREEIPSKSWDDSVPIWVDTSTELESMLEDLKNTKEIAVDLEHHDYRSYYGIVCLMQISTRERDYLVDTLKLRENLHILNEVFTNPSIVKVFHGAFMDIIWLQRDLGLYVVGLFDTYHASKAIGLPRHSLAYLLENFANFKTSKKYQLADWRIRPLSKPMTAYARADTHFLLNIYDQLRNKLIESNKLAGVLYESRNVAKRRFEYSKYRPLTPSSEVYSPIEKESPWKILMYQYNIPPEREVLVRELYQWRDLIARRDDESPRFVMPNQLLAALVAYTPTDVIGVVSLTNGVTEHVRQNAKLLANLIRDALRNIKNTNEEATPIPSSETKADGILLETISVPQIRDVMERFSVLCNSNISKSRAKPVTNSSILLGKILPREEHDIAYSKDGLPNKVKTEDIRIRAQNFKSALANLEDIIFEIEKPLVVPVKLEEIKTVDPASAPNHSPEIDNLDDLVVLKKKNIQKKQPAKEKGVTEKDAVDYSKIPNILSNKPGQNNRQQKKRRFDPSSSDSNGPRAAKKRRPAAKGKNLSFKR

By UniProt entry, the sequences of proteins in these tests, tags left out.
UniProt P10961: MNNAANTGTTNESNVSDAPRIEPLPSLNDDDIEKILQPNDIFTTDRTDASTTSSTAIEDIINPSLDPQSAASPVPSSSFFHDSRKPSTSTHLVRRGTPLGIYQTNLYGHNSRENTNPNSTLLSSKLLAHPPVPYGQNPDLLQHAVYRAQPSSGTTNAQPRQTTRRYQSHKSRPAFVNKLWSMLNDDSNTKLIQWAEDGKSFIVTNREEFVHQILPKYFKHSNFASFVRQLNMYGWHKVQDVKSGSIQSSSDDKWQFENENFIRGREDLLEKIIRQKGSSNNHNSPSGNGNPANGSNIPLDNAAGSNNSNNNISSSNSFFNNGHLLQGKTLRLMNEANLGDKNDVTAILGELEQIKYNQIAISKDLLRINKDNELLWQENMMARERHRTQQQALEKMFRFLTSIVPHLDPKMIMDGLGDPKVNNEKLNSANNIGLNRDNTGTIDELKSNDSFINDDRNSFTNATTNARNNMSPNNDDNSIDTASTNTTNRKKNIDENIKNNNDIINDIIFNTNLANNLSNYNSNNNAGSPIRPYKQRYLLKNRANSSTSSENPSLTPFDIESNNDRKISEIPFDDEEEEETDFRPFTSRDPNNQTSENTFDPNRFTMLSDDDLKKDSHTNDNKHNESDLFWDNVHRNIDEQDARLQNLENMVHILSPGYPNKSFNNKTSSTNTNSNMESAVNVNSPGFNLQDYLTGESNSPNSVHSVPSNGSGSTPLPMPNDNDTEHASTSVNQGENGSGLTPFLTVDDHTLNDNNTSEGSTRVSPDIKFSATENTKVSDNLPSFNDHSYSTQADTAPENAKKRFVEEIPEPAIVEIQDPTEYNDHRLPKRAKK
UniProt P39081: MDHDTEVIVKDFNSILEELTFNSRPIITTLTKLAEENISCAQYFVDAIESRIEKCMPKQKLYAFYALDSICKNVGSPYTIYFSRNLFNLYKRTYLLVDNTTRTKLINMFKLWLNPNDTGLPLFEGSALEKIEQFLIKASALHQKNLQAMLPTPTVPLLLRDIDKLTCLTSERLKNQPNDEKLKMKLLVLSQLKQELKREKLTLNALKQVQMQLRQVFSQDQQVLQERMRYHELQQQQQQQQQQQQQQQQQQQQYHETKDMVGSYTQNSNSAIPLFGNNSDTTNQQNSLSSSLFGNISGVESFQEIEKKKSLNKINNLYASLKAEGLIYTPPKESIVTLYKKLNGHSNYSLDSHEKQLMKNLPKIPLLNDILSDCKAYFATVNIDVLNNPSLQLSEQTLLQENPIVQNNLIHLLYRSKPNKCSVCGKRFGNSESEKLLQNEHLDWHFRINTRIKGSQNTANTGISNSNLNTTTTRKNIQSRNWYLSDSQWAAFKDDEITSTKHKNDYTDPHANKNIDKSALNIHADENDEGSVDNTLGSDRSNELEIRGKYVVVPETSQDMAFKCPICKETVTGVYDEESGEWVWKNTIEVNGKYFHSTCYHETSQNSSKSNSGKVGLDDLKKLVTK

[2] = molecular target: Pcf11p (in yeast cells) (S. cerevisiae) (UniProt P39081)
[3] = molecular target: T2, Yra1p-5xFLAG (S. cerevisiae) (UniProt Q12159)
T2 sequence: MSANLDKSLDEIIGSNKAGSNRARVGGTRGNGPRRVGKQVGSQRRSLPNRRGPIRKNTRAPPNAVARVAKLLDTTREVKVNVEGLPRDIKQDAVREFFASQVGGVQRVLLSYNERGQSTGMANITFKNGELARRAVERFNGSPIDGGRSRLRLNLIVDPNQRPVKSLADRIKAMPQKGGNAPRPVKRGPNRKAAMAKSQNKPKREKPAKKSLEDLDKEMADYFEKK

Sub2p (S. cerevisiae) = molecular target: T3, Sub2p (S. cerevisiae) (UniProt Q07478)
T3 sequence: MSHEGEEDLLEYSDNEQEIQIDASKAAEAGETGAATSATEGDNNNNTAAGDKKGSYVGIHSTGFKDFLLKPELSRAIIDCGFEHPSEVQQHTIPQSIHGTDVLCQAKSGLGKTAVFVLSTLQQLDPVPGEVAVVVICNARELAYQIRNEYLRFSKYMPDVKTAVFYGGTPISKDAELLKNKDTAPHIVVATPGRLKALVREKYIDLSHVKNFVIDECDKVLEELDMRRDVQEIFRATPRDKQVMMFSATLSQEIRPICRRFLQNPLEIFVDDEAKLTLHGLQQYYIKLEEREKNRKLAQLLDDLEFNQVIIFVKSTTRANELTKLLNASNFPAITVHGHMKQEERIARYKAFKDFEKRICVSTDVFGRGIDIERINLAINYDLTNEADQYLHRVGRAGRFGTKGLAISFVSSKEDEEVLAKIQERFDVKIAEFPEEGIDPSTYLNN

binding (Hsf1p (S. cerevisiae)): binds
binding [1]: binds
binding [2]: no binding
binding [3]: binds
binding (Sub2p (S. cerevisiae)): binds
B1: Sgf73p-13xMYC (protein, UniProt P53165 1-657)
chain: MRSGDAEIKGIKPKVIEEYSLSQGSGPSNDSWKSLMSSAKDTPLQYDHMNRESLKKYFNPNAQLIEDPLDKPIQYRVCEKCGKPLALTAIVDHLENHCAGASGKSSTDPRDESTRETIRNGVESTGRNNNDDDNSNDNNNDDDDDDDNDDNEDDDDADDDDDNSNGANYKKNDSSFNPLKRSTSMESANTPNMDTKRSKTGTPQTFSSSIKKQKKVKQRNPTEKHLIDFNKQCGVELPEGGYCARSLTCKSHSMGAKRAVSGRSKPYDVLLADYHREHQTKIGAAAEKRAKQQELQKLQKQIQKEQKKHTQQQKQGQRSKQRNVNGGKSAKNGGKSTVHNGNNINEIGHVNLTPEEETTQVLNGVSRSFPLPLESTVLSSVRYRTKYFRMREMFASSFSVKPGYTSPGYGAIHSRVGCLDLDRTTDYKFRVRTPQPINHLTNQNLNPKQIQRLQQQRALQAQLLSQQQQQQQQQQQHHSPQAQAQASTQQPTQGMVPNHFPGGATNSSFNANVSSKQIQQQQQQQQHKSQDTGLTPLEIQSQQQKLRQQQLQQQKFEAAASYLANATKLMQESNQDSHLSGTHNNNSSKNGNNNLMTMKASISSPNTSVNSIQSPPSVNSVNGSGQGVSTGINVSGNNGRIEVGIGNSVNPYNGRIN

— publication PMC6549176
